Sequences and labels used below:
T1: RBFOX1 RRM RbFoxmut (Fox-RRM*) (Homo sapiens, UniProt Q9NWB1 109-208, R118D;E147R;N151S;E152T)
T1 sequence: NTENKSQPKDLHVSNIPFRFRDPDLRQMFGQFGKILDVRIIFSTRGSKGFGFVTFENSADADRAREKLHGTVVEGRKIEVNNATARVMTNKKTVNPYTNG

B1: ACCGGAC (DNA:RNA)
RNA: GGGAGACCGGAAUUCAGAUUGUCCACCGGACUUAAAUCCCGUCGUAGCCACCA
DNA 1: CAATCTGAATTCCGGTCTCCC
DNA 2: TGGTGGCTACGACGGGATT
B2: GUAGCUA (DNA:RNA)
RNA: B1 RNA with A25G, C26U, C27A, G29C, A30U, C31A
DNA 1: CAATCTGAATTCCGGTCTCCC
DNA 2: TGGTGGCTACGACGGGATT
B3: UAGAUUG (DNA:RNA)
RNA: GGGAGACCGGAAUUCAGAUUGUCCUAGAUUGUUAAAUCCCGUCGUAGCCACCA
DNA 1: CAATCTGAATTCCGGTCTCCC
DNA 2: TGGTGGCTACGACGGGATT
B4: GUACCAC (DNA:RNA)
RNA: B1 RNA with A25G, C26U, C27A, G28C, G29C
DNA 1: CAATCTGAATTCCGGTCTCCC
DNA 2: TGGTGGCTACGACGGGATT
B5: UAACCUG (DNA:RNA)
RNA: B3 RNA with G27A, A28C, U29C
DNA 1: CAATCTGAATTCCGGTCTCCC
DNA 2: TGGTGGCTACGACGGGATT
B6: UAGCAAG (DNA:RNA)
RNA: B3 RNA with A28C, U29A, U30A
DNA 1: CAATCTGAATTCCGGTCTCCC
DNA 2: TGGTGGCTACGACGGGATT
B7: ACGUUGC (DNA:RNA)
RNA: B1 RNA with C27G, G28U, G29U, A30G
DNA 1: CAATCTGAATTCCGGTCTCCC
DNA 2: TGGTGGCTACGACGGGATT
B8: AGGCUCU (DNA:RNA)
RNA: B3 RNA with U25A, A26G, A28C, U30C, G31U
DNA 1: CAATCTGAATTCCGGTCTCCC
DNA 2: TGGTGGCTACGACGGGATT
B9: AACCCUA (DNA:RNA)
RNA: B1 RNA with C26A, G28C, G29C, A30U, C31A
DNA 1: CAATCTGAATTCCGGTCTCCC
DNA 2: TGGTGGCTACGACGGGATT
B10: UAGCUAU (DNA:RNA)
RNA: B3 RNA with A28C, U30A, G31U
DNA 1: CAATCTGAATTCCGGTCTCCC
DNA 2: TGGTGGCTACGACGGGATT
B11: CGCCUUC (DNA:RNA)
RNA: B1 RNA with A25C, C26G, G28C, G29U, A30U
DNA 1: CAATCTGAATTCCGGTCTCCC
DNA 2: TGGTGGCTACGACGGGATT
B12: CCAUUUC (DNA:RNA)
RNA: B1 RNA with A25C, C27A, G28U, G29U, A30U
DNA 1: CAATCTGAATTCCGGTCTCCC
DNA 2: TGGTGGCTACGACGGGATT
B13: GUCGUAU (DNA:RNA)
RNA: B1 RNA with A25G, C26U, G29U, C31U
DNA 1: CAATCTGAATTCCGGTCTCCC
DNA 2: TGGTGGCTACGACGGGATT
B14: GAAUUCU (DNA:RNA)
RNA: B3 RNA with U25G, G27A, A28U, U30C, G31U
DNA 1: CAATCTGAATTCCGGTCTCCC
DNA 2: TGGTGGCTACGACGGGATT
B15: CUGCGUA (DNA:RNA)
RNA: B3 RNA with U25C, A26U, A28C, U29G, G31A
DNA 1: CAATCTGAATTCCGGTCTCCC
DNA 2: TGGTGGCTACGACGGGATT
B16: CUCCCGU (DNA:RNA)
RNA: B1 RNA with A25C, C26U, G28C, G29C, A30G, C31U
DNA 1: CAATCTGAATTCCGGTCTCCC
DNA 2: TGGTGGCTACGACGGGATT
B17: AUACGAC (DNA:RNA)
RNA: B1 RNA with C26U, C27A, G28C
DNA 1: CAATCTGAATTCCGGTCTCCC
DNA 2: TGGTGGCTACGACGGGATT
B18: GGAGCGC (DNA:RNA)
RNA: B1 RNA with A25G, C26G, C27A, G29C, A30G
DNA 1: CAATCTGAATTCCGGTCTCCC
DNA 2: TGGTGGCTACGACGGGATT
B19: AUCACGU (DNA:RNA)
RNA: B1 RNA with C26U, G28A, G29C, A30G, C31U
DNA 1: CAATCTGAATTCCGGTCTCCC
DNA 2: TGGTGGCTACGACGGGATT
B20: GCCCAGC (DNA:RNA)
RNA: B1 RNA with A25G, G28C, G29A, A30G
DNA 1: CAATCTGAATTCCGGTCTCCC
DNA 2: TGGTGGCTACGACGGGATT
B21: UUAAGCC (DNA:RNA)
RNA: B1 RNA with A25U, C26U, C27A, G28A, A30C
DNA 1: CAATCTGAATTCCGGTCTCCC
DNA 2: TGGTGGCTACGACGGGATT
B22: CCCCCGA (DNA:RNA)
RNA: B1 RNA with A25C, G28C, G29C, A30G, C31A
DNA 1: CAATCTGAATTCCGGTCTCCC
DNA 2: TGGTGGCTACGACGGGATT
B23: ACGACCA (DNA:RNA)
RNA: B1 RNA with C27G, G28A, G29C, A30C, C31A
DNA 1: CAATCTGAATTCCGGTCTCCC
DNA 2: TGGTGGCTACGACGGGATT
B24: CUGAUCU (DNA:RNA)
RNA: B3 RNA with U25C, A26U, U30C, G31U
DNA 1: CAATCTGAATTCCGGTCTCCC
DNA 2: TGGTGGCTACGACGGGATT
B25: GUUGGUC (DNA:RNA)
RNA: B1 RNA with A25G, C26U, C27U, A30U
DNA 1: CAATCTGAATTCCGGTCTCCC
DNA 2: TGGTGGCTACGACGGGATT
B26: GUCGGCU (DNA:RNA)
RNA: B1 RNA with A25G, C26U, A30C, C31U
DNA 1: CAATCTGAATTCCGGTCTCCC
DNA 2: TGGTGGCTACGACGGGATT
B27: CGUGGGA (DNA:RNA)
RNA: B1 RNA with A25C, C26G, C27U, A30G, C31A
DNA 1: CAATCTGAATTCCGGTCTCCC
DNA 2: TGGTGGCTACGACGGGATT
B28: GCAAGAU (DNA:RNA)
RNA: B1 RNA with A25G, C27A, G28A, C31U
DNA 1: CAATCTGAATTCCGGTCTCCC
DNA 2: TGGTGGCTACGACGGGATT
B29: GCUCCGG (DNA:RNA)
RNA: B1 RNA with A25G, C27U, G28C, G29C, A30G, C31G
DNA 1: CAATCTGAATTCCGGTCTCCC
DNA 2: TGGTGGCTACGACGGGATT
B30: GGGCCCC (DNA:RNA)
RNA: B1 RNA with A25G, C26G, C27G, G28C, G29C, A30C
DNA 1: CAATCTGAATTCCGGTCTCCC
DNA 2: TGGTGGCTACGACGGGATT
B31: ACCCGCA (DNA:RNA)
RNA: B1 RNA with G28C, A30C, C31A
DNA 1: CAATCTGAATTCCGGTCTCCC
DNA 2: TGGTGGCTACGACGGGATT

Substitutions are numbered along the chain they refer to; changes in the protein carry UniProt numbers. Some of the results follow.

This test has as its target T1, RBFOX1 RRM RbFoxmut (Fox-RRM*). The test can be described thus: EMSA; HiTS-Eq, 1 nM pool, 10 min; buffer printed only for the single-RNA assays: 10 mM Tris pH 7.5, 150 mM NaCl, 3.4 mM EDTA, 0.001% NP-40, 30 C. As to conditions: tags: His6 N-terminal (pET28a); label: 5' 32P. The method in brief:
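These values rest on relative association constants, computed from read-count changes of each RNA species versus the control reaction and normalised to the cognate motif. Reads came from free RNA recovered by 8% native PAGE after purified RbFox RRM (wild type or mutant) at increasing concentrations was equilibrated for 10 min in 50 µL with 1 nM of a 5′-radiolabelled pool with 7 randomized nucleotides and DNA-annealed flanks.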
(In EMSA bound probe runs differently from free probe, usually more slowly.)
As to B1, the binding signal is 0.0839 KA relative to UGCAUGU.

Consider B2, for which the binding signal was 0.127 KA relative to UGCAUGU.

As for B3, the binding signal was 0.194 KA relative to UGCAUGU.

For the molecule B4, the binding signal is 0.0859 KA relative to UGCAUGU.

As to B5, the binding signal is 0.0476 KA relative to UGCAUGU.

B6: the binding signal was 0.0837 KA relative to UGCAUGU.

Consider B7, for which the binding signal was 0.151 KA relative to UGCAUGU.

As for B8, the binding signal was 0.0577 KA relative to UGCAUGU.

Turning to B9, the binding signal was 0.0958 KA relative to UGCAUGU.

Consider B10, for which the binding signal is 0.0941 KA relative to UGCAUGU.

Take B11: the binding signal is 0.104 KA relative to UGCAUGU.

As for B12, the binding signal is 0.0493 KA relative to UGCAUGU.

Take B13: the binding signal is 0.145 KA relative to UGCAUGU.

Consider B14, for which the binding signal is 0.0477 KA relative to UGCAUGU.

For the molecule B15, the binding signal was 0.186 KA relative to UGCAUGU.

For the molecule B16, the binding signal is 0.047 KA relative to UGCAUGU.

As to B17, the binding signal was 0.0716 KA relative to UGCAUGU.

Consider B18, for which the binding signal was 0.088 KA relative to UGCAUGU.

In the case of B19, the binding signal is 0.121 KA relative to UGCAUGU.

Regarding B20, the binding signal was 0.0724 KA relative to UGCAUGU.

As for B21, the binding signal was 0.106 KA relative to UGCAUGU.

As for B22, the binding signal is 0.106 KA relative to UGCAUGU.

As to B23, the binding signal is 0.0707 KA relative to UGCAUGU.

For B24, the binding signal was 0.0527 KA relative to UGCAUGU.

Consider B25, for which the binding signal was 0.164 KA relative to UGCAUGU.

On to B26, for which the binding signal was 0.116 KA relative to UGCAUGU.

As for B27, the binding signal is 0.0817 KA relative to UGCAUGU.

For B28, the binding signal was 0.0667 KA relative to UGCAUGU.

On to B29, for which the binding signal is 0.0646 KA relative to UGCAUGU.

As for B30, the binding signal was 0.0574 KA relative to UGCAUGU.

In the case of B31, the binding signal is 0.101 KA relative to UGCAUGU.

(Values after publication PMC9911399, “Two distinct binding modes provide the RNA-binding protein RbFox with extraordinary sequence specificity”.)
